Reference: the RNAGym collection of RNA variant scans (doi:10.7554/elife.90254)
Read counts are not given, so values of variants with three or more changes are uncertain.

B1: LINE1-mini (parent)
chain: GGCAGAGCUCAACACAGCGUGGCAAAGUGGCUGUGGCUAGACUGCC

Variants of: B1
Experiment: self-cleavage, relative activity (ratio to wild type); higher = more cleavage; in vitro, sequencing; the parent is a self-cleaving ribozyme

| Variant | self-cleavage |
| --- | --- |
| G2U C10A U20G G27A | 0 |
| G2U C23G G29C | 0.51 |
| G2U G5A C8G G35A | 0.03 |
| G2U C10A G22C C46U | 0 |
| G2U C15U G21U | 0 |
| G2U C15A G40A | 0.01 |
| G2U C13U G33U A39C G40A | 0.02 |
| G2U C13A A14U U38C | 0.03 |
| G2U C18U C42A | 0.01 |
| G2U C18A U34A G35C | 0 |
| G2U G5A C8A G27C C37G | 0.01 |
| G2U C15A G27U C42U | 0.01 |
| G2U C10A A12U C13G | 0.02 |
| G2U G5U A14G | 0.01 |
| G2U G5A A6C U38C | 0.05 |
| G2U C13A A16G C31A | 0.01 |
| G2U G5C A26G | 0.02 |
| G2U G5C G21U G30U | 0.03 |
| G2U C15G C23U | 0.01 |
| G2U C23U A24C | 0.03 |
| G2U C23U A24G | 0.04 |
| G2U C42A C46G | 0.13 |
| G2U C18U A39U | 0.04 |
| G2U G5C G30C G36A A41C | 0.02 |

| Variant | self-cleavage |
| --- | --- |
| G2U C18U G21U U38C | 0.02 |
| G2U C13A A41U | 0.09 |
| G2U C8U U20G A26G | 0.02 |
| G2U C13G A14G | 0.01 |
| G2U C23G A39C | 0.02 |
| G2U G5A A11G C45A | 0.01 |
| G2U G5A A11G A12U | 0 |
| G2U G5U A16U G22A | 0.03 |
| G2U C10U A11G G21C C42U | 0 |
| G2U C10A G27A C31U | 0.01 |
| G2U C31G A39G | 0.01 |
| G2U C23G G27A | 0.07 |
| G2U C10A A11C A14U A41U | 0.01 |
| G2U C15U C46A | 0.08 |
| G2U C10A C13U | 0.02 |
| G2U C18A G19C G27U C31A U32G | 0.07 |
| G2U C31G G44C C45A | 0.01 |
| G2U C13U A39U C42G G44U | 0.04 |
| G2U C10U C18G G21C C23G U38G C42G C46U | 0.01 |
| G2U C15G G19U | 0.01 |
| G2U C18G A25U G29U | 0.01 |
| G2U C15A A24C G27U | 0 |
| G2U G5C C10G A14G G22U U32G G44C | 0 |
| G2U C23U G36C C42U | 0.1 |

| Variant | self-cleavage |
| --- | --- |
| G2U C13A U38G C42U | 0.01 |
| G2U C13A G21A U38G | 0.01 |
| G2U C10A A39U G44U | 0.01 |
| G2U C23U C37U | 0.02 |
| G2U C23U A25G | 0.03 |
| G2U C10A A11U A16C G27U | 0 |
| G2U G5C A14U C18A G19C C31A | 0.03 |
| G2U C10G G17C C18G G40C | 0.01 |
| G2U C23A A24C | 0.04 |
| G2U C15A G17U A25U G27C | 0.01 |
| G2U C10U G21A A25G G29A U38A G40C | 0.01 |
| G2U C10A G30U | 0.03 |
| G2U C15G U32C G35A | 0 |
| G2U C13U A16C G17A | 0.01 |
| G2U C23A C45A | 0.31 |
| G2U C18U U28A C31G | 0.02 |
| G2U G5A G30U C31G A41C C46U | 0.01 |
| G2U C13U A14C G35U | 0.02 |
| G2U C18A U28A | 0.02 |
| G2U C10G U38G | 0 |
| G2U C15A G19U U34C G44U | 0.02 |
| G2U C18A G35U | 0.01 |
| G2U C10U A12U C23A | 0.02 |
| G2U C10A A12U | 0 |

| Variant | self-cleavage |
| --- | --- |
| G2U C10G C23G A25C | 0.02 |
| G2U C15U G17A G35C G44C | 0.01 |
| G2U G5C U32C G33U C42A | 0.01 |
| G2U G5C C10A A39C | 0.02 |
| G2U C10A A11U U32A | 0 |
| G2U C23U G35U C42A G44C C46A | 0.03 |
| G2U C13G C18G U38A | 0.02 |
| G2U C15G C23U G36U | 0.01 |
| G2U C18U A26G G33A G40U | 0.05 |
| G2U G5A C31A C46A | 0 |
| G2U C10A C42U | 0.01 |
| G2U C13G A14G U34A | 0 |
| G2U G5A A25C A41U | 0.04 |
| G2U C23G C45G | 0.08 |
| G2U C13G C15A C18U | 0.02 |
| G2U G5A C31A G35U | 0.01 |
| G2U C18G U32C G44U | 0 |
| G2U G5C C10U A11C G19U | 0.01 |
| G2U C13G G21A U32A U34C A39C | 0.03 |
| G2U C8U U34C A41G | 0.14 |
| G2U C13A U34A A41C U43C C45A | 0.01 |
| G2U C10G G19U A26G G30U C37U C46G | 0 |
| G2U C15U G29C | 0.09 |
| G2U C10G C15G G17U U38G | 0.02 |

| Variant | self-cleavage |
| --- | --- |
| G2U C13U A25G G27C C45A | 0 |
| G2U C10U C42U | 0.03 |
| G2U G5C C18A G19A G21A | 0.01 |
| G2U C15U G30U | 0.02 |
| G2U C18U G29A C45A | 1.21 |
| G2U C10G U34C | 0 |
| G2U G5A A16C G29U | 0.01 |
| G2U C23G A24U A41C | 0.02 |
| G2U C18U U38A C42A | 0 |
| G2U G5A G21A C37A | 0.12 |
| G2U C18A C42A | 0.01 |
| G2U C10U G19A | 0.01 |
| G2U C31G U38A C46A | 0 |
| G2U C10A A11C U34G | 0 |
| G2U C10A A16G G22C | 0.01 |
| G2U C15A A25C G27U | 0.05 |
| G2U C23G C37A U38A | 0.02 |
| G2U C18G U20A | 0.01 |
| G2U C18G A26U U34C C46A | 0.03 |
| G2U C15U C23A G36U C46A | 0.05 |
| G2U C23A C31U | 0.03 |
| G2U C13A A25G C31A U34G C46A | 0.01 |
| G2U C10G G19A A24G A26G | 0 |
| G2U C31G C46A | 0.03 |

| Variant | self-cleavage |
| --- | --- |
| G2U G5A U28A G29A | 0.02 |
| G2U C15A G19C C23U | 0.05 |
| G2U C18A U34G C37A | 0.06 |
| G2U G5C A6G U34G | 0.01 |
| G2U C10G U20A C42U C46A | 0 |
| G2U C10U G17A G40U C46G | 0.02 |
| G2U C15A A16U G33U C37U | 0.03 |
| G2U C15G C45G | 0.01 |
| G2U G5A A14C G29A G40A | 0.01 |
| G2U C37A A41U | 0.06 |
| G2U C18A A24G | 0.01 |
| G2U C18A A24U | 0.01 |
| G2U C13A C18U A26C G29U U34A | 0.02 |
| G2U C10A C18A C23G G29A G33C | 0 |
| G2U C13U G19A | 0.07 |
| G2U C10G A25G U38A C42A | 0.01 |
| G2U G5A A25G G40U | 0.02 |
| G2U C13U A24C G30U | 0.05 |
| G2U C18A U38G A39G C42A | 0.02 |
| G2U C10A U20G G22A U32A | 0.01 |
| G2U C15G A24G | 0.02 |
| G2U G5A A6U G30C G33U G36A | 0.03 |
| G2U C18A G21C C31U | 0.02 |
| G2U G5U A6C G7U A16G G36U | 0.12 |

| Variant | self-cleavage |
| --- | --- |
| G2U C13G C42A U43A | 0.01 |
| G2U C13U A26C U32C U34C | 0.06 |
| G2U C37U G44U C46G | 0.03 |
| G2U C15U C23U U28C C45G | 0.08 |
| G2U C13U G36C | 0.01 |
| G2U C15A G35A | 0.06 |
| G2U C15A C18A G33C | 0.01 |
| G2U C13A G17U | 0 |
| G2U C18U A25C A41G | 0.04 |
| G2U C15A G17U G19C C23G | 0 |
| G2U C18U C23U | 0.07 |
| G2U C37U C42G | 0.01 |
| G2U C10A C23G G27A A41U | 0.03 |
| G2U G5C C45U | 0.01 |
| G2U G5A C13A G35A | 0.05 |
| G2U G5U C8A U28C | 0.03 |
| G2U G5A A16G G22A U32A U34G G40A C46U | 0.02 |
| G2U C8U G21A | 0.18 |
| G2U C13U C15U G33A | 0.14 |
| G2U C13U C31A G36A | 0.02 |
| G2U C18U G22U U28G C37U C46G | 0.05 |
| G2U C13A G36U C37U | 0.03 |
| G2U G5A G40U | 0.02 |
